Test results as given in PubChem BioAssay AID504832 (National Center for Advancing Translational Sciences (NCATS), 2011).
“And” between values parts separate entries of the source, which are not always exact repeats. Identical values can stand only once. The whole screen tested about 310,000 compounds, of which about 18,000 (5.8%) were called active. The inconclusive results got no clear call from the source; some entries with a clear call stand among them for comparison. Calls come from the whole dose curve; as a rule, active = well fitted inhibition curve with a large enough effect; inconclusive = small, poorly fitted or top-dose-only effect, or another doubt; inactive = no such curve, though single readings can be large or run the other way. No potency is given beside an inconclusive call; the fits are too rough. Some structures have more than one record in an assay (separate samples or runs), and their calls can disagree.

Assay: Primary qHTS for delayed death inhibitors of the malarial parasite plastid, 48 hour incubation
Settings: P. falciparum luciferase growth in erythrocytes; series mostly up to 28.7 µM
Outline: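 Here the parasites carry a stable luciferase gene and grow inside erythrocytes in Albumax-based RPMI medium with compound for one erythrocytic cycle. Activity is scored as loss of luminescent signal.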
Potency is the fitted concentration of half-maximal effect; tags give direction and shape of the fitted curve.

SMILES	Potency
C/C=C\C=C\C(=O)N1CC2(CC(c3cccc(NC(=O)CC(c4ccccc4)c4ccccc4)c3)=NO2)C[C@H]1C(N)=O (stereo partly specified)	inconclusive [inhibitor, single point]
CC1CCN(c2nncc3ccccc23)CC1	inconclusive [inhibitor, single point]
CCC(=O)NCCCc1nc2ccccc2n1Cc1ccccc1F	inconclusive [inhibitor, partial curve, poor fit]
COc1cccc(CC(NC(C)=O)C(=O)NC2CCN(C(=O)C3CCCCC3)CC2)c1OC (stereo unspecified)	inconclusive [inhibitor, partial curve, poor fit]
Cc1ccc(Cl)cc1NC(=O)CNC(=O)N1CC(=O)Nc2ccccc21	inactive
CC(=O)N1CCCN(Cc2cn(-c3cc(C)ccc3C)nc2-c2ccccc2)CC1	active: 16.5 µM
Cc1cc(C)cc(N(CC(=O)Nc2ccccc2C(=O)N2CCOCC2)S(C)(=O)=O)c1	inactive
O=C(CC1CCCCC1)Nc1ncn[nH]1	inactive
O=C1OCCN1C(=O)[C@H]1[C@H](c2ccc(F)cc2)C(c2ccc(F)cc2)=NN1c1ccc(Br)cc1	inconclusive [inhibitor, partial curve, poor fit]
CC(Sc1nnc(-c2cc3ccccc3o2)n1-c1ccccc1)C(=O)O (stereo unspecified)	inconclusive [inhibitor, full curve]
O=C(c1ccc(-c2ccc([N+](=O)[O-])cc2)o1)N1CCCC(C(F)(F)F)C1 (stereo unspecified)	active: 9.28 µM
COCCN(C(=O)Cc1cccs1)C(C(=O)NC1CCCC1)c1cc(OC)c(OC)c(OC)c1 (stereo unspecified)	inactive
C=CCn1c(SCC(=O)Nc2nccs2)nnc1-c1cc2cccc(OC)c2o1	inconclusive [inhibitor, partial curve, poor fit]
CCN(CC(=O)Nc1ccccc1OC)C(=O)c1cc(-c2ccccc2)nn1-c1ccccc1	inconclusive [inhibitor, single point]
O=C(c1ccc(=O)[nH]c1)N1CCN(S(=O)(=O)c2ccccc2)CC1	inactive
COc1ccccc1CC(=O)Nc1cc(Cl)ccc1O	inconclusive [inhibitor, partial curve, poor fit]
CCOCCCNC(=O)C(NC(=O)Cc1cccs1)c1ccc(OC)cc1 (stereo unspecified)	inactive
COc1ccccc1NC(=O)C(C)NS(=O)(=O)c1ccc(Cl)cc1 (stereo unspecified)	inconclusive [inhibitor, partial curve]
Cc1nc2ccccc2nc(C)c1=NOCc1ccccc1Cl	inconclusive [inhibitor, single point]
Cc1ccc(-c2n[nH]c(=S)n2/N=C/c2ccc(C)s2)cc1	active: 11.7 µM
O=C(CSc1nn(-c2ccccc2)c(=S)s1)NC(=O)NCc1ccco1	inactive
CC(=O)c1cccc(NC(=O)NN2CCN(C)CC2)c1	inactive
COc1ccc(NC(=O)CN(C)CC(=O)Nc2sc3c(c2C#N)CCC3)cc1	inconclusive [inhibitor, single point]
CC1=C(C(=O)NCc2ccccc2)C(c2ccccc2OCC(N)=O)NC(=O)N1 (stereo unspecified)	inactive

SMILES	Potency
COc1cc(/C=C/C(=O)NCc2cccnc2)cc(OC)c1OC	inconclusive [inhibitor, single point]
CCCCC12CN3CCN(CC(C3)/C1=N\NC(=O)Nc1ccccc1)C2	inconclusive [inhibitor, single point]
Cn1nc(-c2ccc(S(N)(=O)=O)s2)cc1C(F)(F)F	inactive
COc1ccc(CNC(=O)[C@]2(C)CCC[C@@]3(C)C4CC[C@@]5(C)C[C@]4(CCC32)CC5=O)cc1 (stereo partly specified)	inconclusive [inhibitor, partial curve, poor fit]
CCSc1nnc(SCC(=O)NNC(=O)c2ccccc2F)s1	inactive
CCOC(=O)c1cn(CC)c2cc(N3CCOCC3)c(F)cc2c1=O	active: 1.85 µM
Cc1ccc(CNC(=O)c2cc(Cl)cc(Cl)c2)n1C	inactive
COc1cccc(Oc2ccc(S(=O)(=O)N3CCCC3)cc2[N+](=O)[O-])c1	active: 10.4 µM
CCC(=O)NCCc1nc2cc(NC(=O)c3cccs3)ccc2n1C	inactive
CC(=O)c1cccc(OCC(=O)N2CCN(CC(=O)Nc3cccc(F)c3)CC2)c1	inconclusive [inhibitor, single point]
CCC(C)n1c(SCC(=O)NC2CCS(=O)(=O)C2)nc2ccccc2c1=O (stereo unspecified)	inconclusive [inhibitor, single point]
O=S(=O)(c1ccc(NCCOc2ccccc2)nc1)N1CCCC1	inconclusive [inhibitor, single point]
CCc1cccc(CC)c1N(COC)C(=O)Cn1ccccc1=N	inconclusive [inhibitor, single point]
O=c1[nH]c(CN2CC=C(c3ccccc3)CC2)nc2scc(-c3cccs3)c12	inconclusive [inhibitor, single point]
CCOC(=O)c1c(CN2CCC(C)CC2)oc2ccc(OC)cc12	inconclusive [inhibitor, single point]
CCc1c(C)sc2nc3c(C(=O)N4CCOCC4)cc(C(=O)c4ccccc4O)cn3c(=O)c12	inconclusive [inhibitor, partial curve]
Cc1ccc2[nH]c(O)c(N=Nc3ccccc3C)c2c1	inactive
Cc1ccc(/C=C2\CC(C)CC3=C2NC(=S)NC3c2ccc(C)cc2)cc1 (stereo unspecified)	inconclusive [inhibitor, single point]
COc1ccc(/C=N/Nc2cc(C)nc3ccccc23)cc1	active: 0.738 µM
CCCn1c(SCC(=O)c2cc(C)n(-c3ccc4c(c3)OCO4)c2C)n[nH]c1=O	inactive
COc1ccc(NC(=O)Cc2ccc(C)c(C)c2)cc1Cl	inconclusive [inhibitor, partial curve]
O=C(C1CCCN(S(=O)(=O)Cc2ccccc2)C1)N1CCCCC1 (stereo unspecified)	inconclusive [inhibitor, single point]
Cc1ccc(S(=O)(=O)N2CCN=C2c2ccccc2)cc1C	inconclusive [inhibitor, single point]
Cc1cccc(OC(=O)c2cncc(Br)c2)c1	inactive

SMILES	Potency
COC(=O)C1CCN(CC(=O)Nc2ccc(C(=O)Nc3ccccc3OC)cc2)CC1	inconclusive [inhibitor, single point]
COc1ccccc1NS(=O)(=O)c1cc(NC(=O)C2=NNC(=O)CC2)ccc1C	inconclusive [inhibitor, single point]
COc1ccc([N+](=O)[O-])cc1NCc1cccc([N+](=O)[O-])c1	inactive
COc1cc([N+](=O)[O-])ccc1NC(=O)CN1CCN(C(=O)c2ccco2)CC1	inconclusive [inhibitor, full curve, poor fit]
O=C(CN1CCN(c2ccc(Cl)cc2)CC1)NCc1ccccc1	inactive
Cc1cccc(OCC(O)CN2CCN(S(=O)(=O)c3ccc(C)cc3C)CC2)c1 (stereo unspecified)	inconclusive [inhibitor, partial curve]
O=C(COC(=O)c1ccc(C(F)(F)F)cc1)NC(=O)NC1CCCC1	inactive
COCCCN(C(=S)Nc1c(C)cc(C)cc1C)C(C)c1ccccn1 (stereo unspecified)	inactive
Cc1cc(NC(=O)c2ccc3c(c2)OCO3)ccc1NC(=O)c1ccco1	inactive
O=C(Cc1noc2ccccc12)Nc1ccc2ccccc2c1	inconclusive [inhibitor, single point]
COc1ccc(Cl)cc1NC(=O)NC(C)c1ccncc1 (stereo unspecified)	inconclusive [inhibitor, single point]
CC(=O)c1ccc(OCc2cc(C(=O)N(C)Cc3nc4c(C)cccc4[nH]3)no2)cc1	inconclusive [inhibitor, single point]
O=C(CSc1nncc2ccccc12)Nc1cccc(O)c1	inconclusive [inhibitor, partial curve, poor fit]
COC(=O)[C@@]1(Cc2ccc(OC)cc2)[C@H]2c3cc(C(=O)N(C)C)n(C[C@H](O)CO)c3C[C@H]2CN1C(=O)c1ccccc1	inconclusive [inhibitor, partial curve, poor fit]
Cc1c(C(=O)N(Cc2ccccc2Cl)C2CCS(=O)(=O)C2)oc2ccccc12 (stereo unspecified)	inconclusive [inhibitor, partial curve, poor fit]
O=C(Nc1ccc(F)cc1)c1cncs1	inactive
CCNC(=S)N(Cc1cc2cc(C)cc(C)c2[nH]c1=O)C1CCCC1	inconclusive [inhibitor, partial curve, poor fit]
COc1ccccc1NC(=O)Cn1nnc(C(=O)NCc2ccc3c(c2)OCO3)c1N	inactive
C/C(=N\NC(=O)CCc1ccc(S(=O)(=O)N2CCOCC2)cc1)c1ccccc1Cl	inconclusive [inhibitor, single point]
Cc1ccc(-c2csc3ncnc(Cl)c23)cc1	active: 1.47 µM
Cc1nn(Cc2ccccc2Cl)c(C)c1NC(=O)NC12CC3CC(CC(C3)C1)C2	inconclusive [inhibitor, partial curve, poor fit]
CN1C2CCC1CC(OC(=O)c1c[nH]c3ccccc13)C2 (stereo unspecified)	inactive and active: 11.7 µM
COc1ccc(CCNC(=O)CNCC(c2ccccc2)N(C)C)cc1OC (stereo unspecified)	inconclusive [inhibitor, partial curve, poor fit]
